{"source": "PubChem BioAssay AID686978", "about": "(National Center for Advancing Translational Sciences (NCATS), 2013)", "note": "Hit rate of the full screen: of about 420,000 compounds, about 64,000 (15%) were called active. The shares of active, inactive and inconclusive entries below differ from those in the screen. Calls come from the whole dose curve; as a rule, active = well fitted inhibition curve with a large enough effect; inconclusive = small, poorly fitted or top-dose-only effect; inactive = flat fitted curve, though single readings scatter. No potency is given beside an inconclusive call; the fits are too rough. % is set by controls: 0 for no effect and ±100 for the full control effect; potency is the fitted concentration of half-maximal effect; tags give direction and shape of the fitted curve.", "data": [{"assay": "qHTS for Inhibitors of human tyrosyl-DNA phosphodiesterase 1 (TDP1): qHTS in cells in absence of CPT; note: nearly all actives have a fitted effect of over 55% in size", "details": "DT40 Tdp1-/- hTDP1 cells, no CPT, ATP luminescence, 48 h; activity change, negative = growth inhibition: at 46.2 µM (top of the series) unless noted", "summary_of_the_method": "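Readout: luminescence from CellTiter-Glo after 30 min in the dark at RT. Cells: DT40 Tdp1-/- with stable hTDP1, 400/well. Exposure: compounds alone, ≥48 hr, 37 °C.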", "values": [{"smiles": "CCC1CCCCN1C(=O)COc1ccc(N(C)S(=O)(=O)c2ccc(C)cc2)cc1", "note": "(stereo unspecified)", "Potency": "active: 14.6 µM"}, {"smiles": "Cc1ccc(C)c(C(C)NC(=O)Cc2cccs2)c1", "note": "(stereo unspecified)", "Potency": "inactive"}, {"smiles": "COc1cc(OC)c(N(C)S(=O)(=O)c2cccc(C(=O)OCc3c(C)noc3C)c2)cc1Cl", "Potency": "active: 23.1 µM"}, {"smiles": "CCCCCCN=C1CC(C)(C)CC(=O)/C1=C(/O)CCC", "Potency": "active: 16.4 µM"}, {"smiles": "CC(C)N1C(=S)SC(C)(C)C1n1oc(=O)n(-c2cccc(Cl)c2)c1=O", "note": "(stereo unspecified)", "Potency": "inactive"}, {"smiles": "CCOC(=O)c1ccccc1NC(=O)CSc1ncc(C(=O)OCC)c(N)n1", "Potency": "inconclusive [inhibitor, single point]"}, {"smiles": "CCn1c2c(c(=O)n3ncc(C(=O)Nc4ccc(Cl)cc4C)c13)CN(Cc1ccc(OC)cc1)CC2", "Potency": "inconclusive [inhibitor, single point]"}, {"smiles": "CCN(CC(=O)Nc1c(F)cccc1F)C(=O)Cc1csc(-c2ccccc2)n1", "Potency": "inactive"}, {"smiles": "CCCN1CCC(=NNc2ccc(S(=O)(=O)N3CCOCC3)cc2[N+](=O)[O-])CC1", "Potency": "active: 2.59 µM"}, {"smiles": "CCCN(CCC)C(=O)Nc1cc(Cl)ccc1OC", "Potency": "inconclusive [inhibitor, single point]"}, {"smiles": "COc1ccccc1CC(=O)Nc1ncc(C)s1", "Potency": "active: 16.4 µM"}, {"smiles": "Cc1ccc(NC(=O)c2cc(-c3ccccc3)nn2-c2ccccc2)c(Br)c1", "Potency": "inconclusive [inhibitor, single point]"}, {"smiles": "O=C1NC[C@H](CCCCN2C[C@H](Cc3ccccc3)N(CCc3ccc(O)cc3)C(=O)C2=O)N(CCC2CCCCC2)C1=O", "activity change, negative = growth inhibition": "inconclusive: -34.9% [inhibitor]"}, {"smiles": "CCCn1c(=O)c2sccc2n2c(CCCC(=O)NC3CCCCC3)nnc12", "Potency": "inconclusive [inhibitor, single point]"}, {"smiles": "COC(=O)c1cc(C(=O)Nc2nnc(CC(C)C)s2)cc([N+](=O)[O-])c1", "Potency": "inactive"}, {"smiles": "Cc1ccc(C)c(N2CCN(S(=O)(=O)c3ccc4c(c3)NC(=O)CO4)CC2)c1", "Potency": "inactive"}, {"smiles": "O=C(CNS(=O)(=O)c1cccs1)N1CCN(c2ccccc2F)CC1", "Potency": "inactive"}, {"smiles": "O=C(Nc1ccccc1C(=O)N1CCCCC1)c1ccc(Cl)cc1Cl", "Potency": "inactive"}, {"smiles": "CC(=O)Oc1cccc(/C=C2\\C=C(c3ccc(C)cc3)OC2=O)c1", "Potency": "inconclusive [inhibitor, single point]"}, {"smiles": "O=C(CSCC(=O)OCn1nnc2ccccc2c1=O)Nc1ccc(Cl)cc1", "Potency": "inconclusive [inhibitor, single point]"}, {"smiles": "O=C(Nc1cccc(-c2cccc(Cl)c2)c1)C1CCN(C2CCC2)CC1", "Potency": "active: 23.1 µM"}, {"smiles": "O=S(=O)(c1ccc(NC2CCCCC2)cc1)N1CCOCC1", "Potency": "inconclusive [inhibitor, partial curve]"}, {"smiles": "CCOC(=O)c1c(-c2cccs2)csc1NC(=O)COC(=O)c1c(C)noc1C", "Potency": "inconclusive [inhibitor, single point]"}, {"smiles": "COc1ccc(S(=O)(=O)N2CCN(CC(=O)Nc3cc(OC)cc(OC)c3)CC2)cc1", "Potency": "inconclusive [inhibitor, single point]"}, {"smiles": "O=C(NCc1cccs1)c1cc(S(=O)(=O)N2CCOCC2)ccc1N1CCCC1", "Potency": "inactive"}, {"smiles": "NS(=O)(=O)c1cccc(NC(=O)c2cc3ccccc3o2)c1", "Potency": "inconclusive [inhibitor, single point]"}, {"smiles": "Cc1nc2cc3nc(C)sc3cc2s1", "activity change, negative = growth inhibition": "inconclusive: -31.1% [inhibitor]"}, {"smiles": "Cc1ccc(S(=O)(=O)N[C@H](C(=O)NC2CCC(C)CC2)C(C)C)cc1", "note": "(stereo partly specified)", "Potency": "active: 18.4 µM"}, {"smiles": "Cc1ccc(NC(=O)CCNC(=O)Cn2ccc3ccccc3c2=O)cc1F", "Potency": "inconclusive [inhibitor, full curve]"}, {"smiles": "COc1ccccc1Nc1nc(N)nc(-c2cc3ccccc3o2)n1", "Potency": "inconclusive [inhibitor, single point]"}, {"smiles": "O=[N+]([O-])c1ccc(-[n+]2ccc3ccccc3c2)c([N+](=O)[O-])c1", "Potency": "active: 1.3 µM"}, {"smiles": "Cc1ccccc1Nc1c(-c2c[nH]c3ccccc23)nc2cccc(C)n12", "Potency": "inconclusive [inhibitor, partial curve]"}, {"smiles": "COc1ccc(CN2C(=O)CSCC2(C)C(=O)Nc2ccc3c(c2)OCCO3)cc1", "note": "(stereo unspecified)", "activity change, negative = growth inhibition": "inconclusive: -30.3% [inhibitor]"}, {"smiles": "Cc1ccc(S(=O)(=O)N/N=C/c2cnn(C)c2C)cc1", "Potency": "inconclusive [inhibitor, full curve]"}, {"smiles": "COc1ccc(C2C=C(c3ccc(Cl)cc3)Nc3nc(NC(=O)CCC(=O)O)nn32)cc1", "note": "(stereo unspecified)", "Potency": "inactive"}, {"smiles": "O=C(COC(=O)c1cc(S(=O)(=O)N2CCc3ccccc3C2)ccc1Cl)NCc1ccco1", "Potency": "inconclusive [inhibitor, single point]"}, {"smiles": "O=C(NCCSCc1ccccc1)c1ccc(C2SCC(=O)N2Cc2ccccc2)cc1", "note": "(stereo unspecified)", "Potency": "inconclusive [inhibitor, single point]"}, {"smiles": "Cc1ccccc1Cn1c(C)c(CNCCCc2ccccc2)c(C(=O)O)c1C", "Potency": "inconclusive [inhibitor, single point]"}, {"smiles": "COc1cc(NC(=S)N2CCC(C(O)(c3ccccc3)c3ccccc3)CC2)cc(OC)c1", "Potency": "inconclusive [inhibitor, single point]"}, {"smiles": "CC1(C(=O)NCc2ccccc2)CCC(=O)N1C1CC1", "note": "(stereo unspecified)", "Potency": "inactive"}, {"smiles": "Cc1nc(NCCOc2ccccc2)sc1C(=O)Nc1ccccc1", "Potency": "inconclusive [inhibitor, partial curve, poor fit]"}, {"smiles": "O=C(c1ccc(F)cc1)C1CCN(Cc2ccccc2)CC1", "Potency": "inconclusive [inhibitor, single point]"}, {"smiles": "CCCC(=O)N1CCc2[nH]c3ccccc3c2C1", "Potency": "inactive"}, {"smiles": "O=C(O)Cn1c(SCCOc2ccccc2)nc2ccccc21", "Potency": "inactive"}, {"smiles": "Cc1cccc(NC(=O)Cn2cnc3sc(C)c(S(=O)(=O)N4CCC(C)CC4)c3c2=O)n1", "Potency": "inconclusive [inhibitor, partial curve]"}, {"smiles": "Clc1ccccc1-c1nc(-n2ccnc2)c2ccccc2n1", "Potency": "inconclusive [inhibitor, single point]"}]}]}
